Experimental data: PubChem BioAssay (NCI)
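These data come from cells grown in 96-well plates and exposed to compound for 48 hours at five concentrations. GI50 = concentration required for 50% inhibition of growth. The concentration for full growth arrest is given as TGI.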

System: NCI-H322M lung
Assay: inhibition of tumour cell growth, NCI panel, 48 h

| SMILES | TGI | GI50 |
| --- | --- | --- |
| COC(=NCCC1=CCCCC1)OC | > 100 µM |  |
| O=c1cc(-c2ccccc2)oc2ccc(Oc3nnnn3-c3ccccc3)cc12 | > 100 µM |  |
| c1ccc2c3c([nH]c2c1)C1c2[nH]c4ccccc4c2CCN1CC3 | 8.9 µM |  |
| O=C(CCc1ccc(O)c(O)c1)NCCc1cc(OCc2ccccc2)cc(OCc2ccccc2)c1 | 33.9 µM |  |
| c1ccc2c(c1)nc1n2CSC1 | > 100 µM |  |
| CCOC(=O)C(=O)N=Nc1nc2c(O)c3ccccc3c(O)c2s1 | 29.3 µM |  |
| COC(=O)/C=C1/N=C(N(C)/N=C/c2ccccc2)NC1=O | > 100 µM |  |
| O=C(NNC(=O)c1ccncc1)c1ccncc1 | > 100 µM |  |
| CCN(CC)CCNC(=O)c1cccc2cc3ccccc3nc12 | 33.8 µM |  |
| Cc1ccc2c(=O)c(-c3nnc(N)s3)c[nH]c2n1 | > 100 µM |  |
| CN(C)C=Nc1cccc2cnccc12 | > 100 µM |  |
| COc1ccc(N[C@H](CS(=O)c2ccc(C)cc2)C(F)(F)C(F)(F)F)cc1 (stereo partly drawn) | > 100 µM |  |
| CC1=CCC[C@@H]2[C@@](C)(Cc3cc(O)ccc3O)[C@H](C)CC[C@@]12C | 20.9 µM |  |
| O=c1c2ccccc2nc(-c2ccccc2)n1NC(=S)Nc1ccc(Cl)cc1[N+](=O)[O-] | > 100 µM |  |
| O=C(Nc1ccc(Cl)cc1)/C(Cc1cccc[n+]1[O-])=N\Nc1ccc([N+](=O)[O-])cc1[N+](=O)[O-] | > 100 µM |  |
| COc1c2c(cc3c(CCc4ccccc4)cc(=O)oc13)CCC(C)(C)O2 | > 100 µM |  |
| COc1cc2c3c(n(CCN(C)C)c(=O)c2cc1OC)-c1cc2c(cc1C3=O)OCO2 | 69.4 µM | 12.3 µM |
| Cc1ccc(-n2c(Cn3nnc(-c4cccnc4)n3)nn(C3OC(COC(=O)c4ccccc4)C(OC(=O)c4ccccc4)C3OC(=O)c3ccccc3)c2=S)cc1 (stereo not drawn) | > 100 µM |  |
| CC(C)=CC(=O)OC1C2C(C)C(=O)OC2C(O)C(C)C2C=CC(=O)C21C (stereo not drawn) | 10.8 µM |  |
| CC(C)OP(=O)(OC(C)C)/C(=N/N)NNc1ccc([N+](=O)[O-])cc1 | > 100 µM |  |
| CSc1nc2c(N)ncnc2n1C | > 100 µM |  |
| CCN(CC)Cc1nc(C2CCC([N+](=O)[O-])O2)no1 (stereo not drawn) | 66.9 µM |  |
| COc1cc2cc[n+]3c4cc(OC)c(OC)cc4c(C)cc3c2cc1OC | > 100 µM |  |
| CCOC(=O)c1c(C)n2c(=O)cc(C)c3c(OC(C)=O)c(OC(C)=O)cc1c32 | > 79.9 µM | 8.06 µM |
| C=C1CC(Cn2cc(C)c(=O)[nH]c2=O)(c2ccc(-c3ccccc3)cc2)OC1=O (stereo not drawn) | 18.7 µM |  |
| COc1c(CNC(=O)CCl)cc2[nH]c(C)cc2c1CNC(=O)CCl | > 100 µM | 23.8 µM |

| SMILES | TGI | GI50 |
| --- | --- | --- |
| O=C(CCCc1ccccn1)c1ccccc1 | > 100 µM |  |
| CN(C)CCCNc1nccc(-c2c(-c3ccc(F)cc3)nn3cc(C(F)(F)F)ccc23)n1 | > 25 µM | 24.2 µM |
| N#CC(C#N)=CSc1ccccc1 | > 100 µM |  |
| CC[CH2][Sn]([Cl])([Cl])[CH2]CC | 32 µM | 16 µM |
| CC(/C=C/c1ccc([N+](=O)[O-])o1)=N/N1CC(CN2CCOCC2)OC1=O (stereo not drawn) | > 100 µM |  |
| CC(=O)OC1C(CCl)OC(N=[N+]=[N-])C(OC(C)=O)C1OC(C)=O (stereo not drawn) | > 100 µM |  |
| Cc1c(C(=O)O)c2cc3ccccc3cc2c(=O)n1C | > 10 µM |  |
| O=C1C(Cl)=C(Nc2cccc(O)c2)C(=O)N1c1ccc(Cl)c(Cl)c1 | 35.6 µM | 17.6 µM |
| NCC1OC(OC2C(CO)OC(OC3C(O)C(N)CC(N)C3OC3OC(CO)C(O)C(O)C3N)C2O)C(N)C(O)C1O (stereo not drawn) | > 50 µg/mL | > 50 µg/mL |
| CC(=O)O[C@H]1CC[C@@]2(C)C(=CC[C@@H]3[C@@H]2CC[C@]2(C)C(=N/O)/C(=C/c4ccc([N+](=O)[O-])cc4)C[C@@H]32)C1 | > 100 µM |  |
| C#CCOC(=O)C(N)CSSCC(N)C(=O)O (stereo not drawn) | > 100 µM |  |
| C[C@H]1CC(=O)C2=CCCC3(SCCCS3)[C@@H]2[C@H]1CO | > 100 µM |  |
| O=C1CC(=O)c2c(Cl)sc(Cl)c21 | > 100 µM |  |
| CCN1CC2=C(NC(=S)NC2c2cc(OC)c(OC)c(OC)c2)/C(=C/c2cc(OC)c(OC)c(OC)c2)C1 (stereo not drawn) | > 100 µM |  |
| CC1(C)CCc2cc3c(-c4ccccc4)cc(=O)oc3cc2O1 | > 100 µM |  |
| CCCCCC(=O)OCC1(CO)C/C(=C\CC(C(C)C)C(C)C)C(=O)O1 (stereo not drawn) | > 100 µM |  |
| O=C(O)CCCCn1cnc2c(=S)nc[nH]c21 | > 100 µM |  |
| CC(C)[Si](OC1=C(C(=O)N(C)c2ccccc2Cl)CCC1)(C(C)C)C(C)C | 32.5 µM |  |
| CCC1CC(=O)N(SCC(N)C(=O)O)C1=O (stereo not drawn) | > 100 µM |  |
| COC(=O)[C@@]1(C)CC[C@]2(C)CC[C@]3(C)C4=CC=C5C(=CC(=O)C(O)=C5C)[C@]4(C)CC[C@@]3(C)[C@@H]2C1 | 1.92 µM | 0.584 µM |
| COc1ccc(Cc2cnc(NC(=O)c3sc4ccccc4c3Cl)s2)cc1 | > 100 µM | 0.739 µM |
| Cc1nc(/N=C(\N)NC(=O)Nc2ccccc2Cl)sc1C | > 100 µM | 1.29 µM |
| C=C(C)[C@@H]1CCC2=C[C@@H](OC2=O)[C@@H](C(=C)C)C(=O)/C=C(/C)C(=O)C1 | 83.7 µM | 27.6 µM |
| CCOC(=O)c1cc2c([nH]1)C(=O)CC1=C2CCN1Cc1ccccc1 | 37.5 µM |  |
| O=C(O)c1cc(=O)[nH]c(=S)[nH]1 | > 100 µM |  |
| Cc1nc2ccccc2c(=O)n1CC(=O)O | > 100 µM |  |
